Assay results reported in PubChem BioAssay AID1461 (National Center for Advancing Translational Sciences (NCATS), 2008).
About 2,300 (1%) of roughly 220,000 compounds were called active. This list was built around the results that the source calls inconclusive (neither active nor inactive); the mix of calls is not that of the screen. The call rests on the fitted dose curve; in most records, active means well fitted inhibition curve with a large enough effect; inconclusive means small, poorly fitted or top-dose-only effect, or effect the other way; inactive means no such curve, though single readings can be large or run the other way. Potencies of inconclusive entries are left out as doubtful fits.
Further: nearly all actives have a fitted effect of over 50% in size.
On the % scale 0 is the no-effect control and ±100 the full control effect; potency means the concentration at half of the fitted maximal effect; tags describe the fitted curve by direction and shape.

The compounds below were run against Neuropeptide S receptor (Homo sapiens) (UniProt Q6W5P4) (assay: qHTS Assay for Antagonists of the Neuropeptide S Receptor: cAMP Signal Transduction). Settings: CHO-NPSR cells, cAMP TR-FRET, antagonist mode; activity change, negative = inhibition: at 38.3 µM (top of the series) unless noted.
UniProt Q6W5P4, sequence (Q6W5P4 whole entry, looked up): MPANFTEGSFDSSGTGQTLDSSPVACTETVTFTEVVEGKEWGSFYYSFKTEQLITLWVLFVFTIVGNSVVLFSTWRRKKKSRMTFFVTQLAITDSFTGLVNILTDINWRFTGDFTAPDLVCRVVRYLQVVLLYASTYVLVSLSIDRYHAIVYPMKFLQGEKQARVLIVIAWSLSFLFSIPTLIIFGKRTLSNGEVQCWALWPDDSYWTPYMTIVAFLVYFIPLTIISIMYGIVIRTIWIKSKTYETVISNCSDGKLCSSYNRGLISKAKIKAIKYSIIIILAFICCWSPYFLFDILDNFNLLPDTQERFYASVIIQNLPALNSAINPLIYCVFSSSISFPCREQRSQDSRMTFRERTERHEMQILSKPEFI
In the case of O=C(COC(=O)c1ccc(S(=O)(=O)N2CCCCC2)cc1)NCc1ccco1, the “activity change, negative = inhibition” value is reported as inactive: 5.81%.
For Cc1cc(NC(=O)CN2CC(C)OC(C)C2)n(-c2nc3ccccc3s2)n1 (stereo unspecified), the Potency was inconclusive [inhibitor, single point].
With COC(=O)CN1C(c2ccc(OC)cc2)=Nc2ccc(Cl)cc2C1c1ccccc1 (stereo unspecified) the Potency was inconclusive [inhibitor, partial curve].
For CN(C)c1ccc(N=Cc2ccco2)cc1, the Potency was active: 7.94 µM.
With O=C(NCCCN1CCOCC1)c1cc(-c2cccs2)on1 the “activity change, negative = inhibition” value was inactive: -0.675% [at 46.1 µM].
COc1ccc(C(=O)Nc2nc3ccc4nc(C)sc4c3s2)cc1 was tested, and the Potency was inconclusive [inhibitor, single point].
In the case of Cc1ccccc1-c1n[nH]c(=S)n1/N=C/c1c(C)nn(-c2ccccc2)c1C, the “activity change, negative = inhibition” value is reported as inactive: -27.7%.
For OC(c1cc(C(F)(F)F)nc2c(Cl)cc(Cl)cc12)C1CCCCN1 (stereo unspecified), the Potency was inconclusive [activator, partial curve].
For Cc1ccc(OCC(=O)c2cc(C)c(C)cc2C)c([N+](=O)[O-])n1, the Potency was inconclusive [inhibitor, single point].
CCOc1cc(CNCCc2ccc(S(N)(=O)=O)cc2)cc(Cl)c1OCc1ccccc1 was tested, and the Potency was inconclusive [inhibitor, single point].
CC1CC(NS(=O)(=O)c2cccs2)CC(C)(C)C1 (stereo unspecified) was tested, and the Potency was inconclusive [inhibitor, single point].
In the case of Cc1noc(/C=C/c2cccs2)c1S(=O)(=O)N1CCC(C(=O)NCCCN2CCCC(C)C2)CC1 (stereo unspecified), the Potency is reported as inconclusive [inhibitor, single point].
In the case of Cc1noc(C)c1S(=O)(=O)N1CCC2(CC1)OCCO2, the “activity change, negative = inhibition” value is reported as inactive: -2.17% [at 46.1 µM].
For CC(C)c1ccccc1NC(=O)CNC(C)c1ccc(F)cc1 (stereo unspecified), the “activity change, negative = inhibition” value was inactive: -20.1%.
CC1CCC(C(C)C)C(OC(=O)Cn2c(-c3ccc(Br)cc3)[n+](C)c3ccccc32)C1 (stereo unspecified) was tested, and the Potency was inconclusive [inhibitor, single point].
With Cc1ccc(Cl)cc1N1CCN(CC(=O)NC2CCCc3ccccc32)CC1 (stereo unspecified) the Potency was inconclusive [inhibitor, single point].
In the case of Cc1coc(NC(=O)CSc2nc(-c3ccc(Cl)cc3)cc(C(F)(F)F)c2C#N)n1, the Potency is reported as inconclusive [inhibitor, partial curve].
With S=c1[nH]cc(-c2ccc(Cl)cc2)n1-c1ccccc1 the Potency was inconclusive [inhibitor, single point].
COc1ccc(C)cc1NC(=O)CSc1nnc(COc2ccccc2)n1Cc1ccco1 was tested, and the Potency was inconclusive [inhibitor, single point].
In the case of COCc1c(C(=O)OCC(=O)c2c(N)n(CC(C)C)c(=O)n(C)c2=O)oc2ccccc12, the Potency is reported as inconclusive [inhibitor, partial curve, poor fit].
N#Cc1c(-c2cccnc2)c2c([nH]c1=S)CCCC2 was tested, and the “activity change, negative = inhibition” value was inactive: -2.79% [at 46.1 µM].
c1ccc(OCc2nc(-c3cccs3)no2)cc1 was tested, and the “activity change, negative = inhibition” value was inactive: -9.29% [at 46.1 µM].
For N#Cc1ccc(Cl)cc1NC(=O)COC(=O)c1ccc2c(c1)OCCO2, the Potency was inconclusive [inhibitor, single point].
N#C/C(=C/c1ccc(Sc2nc3ccccc3[nH]2)o1)c1cccc(Br)c1 was tested, and the Potency was inconclusive [inhibitor, single point].
With Cc1cccc(-n2cc(CN(C)Cc3nccn3C)c(-c3cccc(F)c3)n2)c1 the Potency was inconclusive [activator, partial curve].
For CC1=CC(C)C2COC(c3ccc[n+](C)c3)C1C2C (stereo unspecified), the “activity change, negative = inhibition” value was inactive: 18.6%.
With COc1ccccc1CNC(=O)c1ccc(Br)o1 the “activity change, negative = inhibition” value was inactive: 16.9%.
In the case of Cc1c(C(=O)OC2CCCCC2)[nH]c2c1C(=O)CC(C)(C)C2, the Potency is reported as inconclusive [inhibitor, single point].
For CCc1c(C)sc(NC(=O)CSc2nc3c(c(C(F)(F)F)n2)CCc2ccccc2-3)c1C#N, the “activity change, negative = inhibition” value was inactive: -4.55% [at 46.1 µM].
CCN(CC)C(=O)CSc1nc2c(sc(=S)n2-c2ccccc2)c(=O)n1Cc1ccco1 was tested, and the Potency was active: 10 µM.
With CCn1cc(C(=O)NCc2ccccc2OC)c(=O)c2cc(S(=O)(=O)N(C)C)ccc21 the “activity change, negative = inhibition” value was inactive: -19.8% [at 46.1 µM].
In the case of CC(NCc1nc2ccccc2n1C)C12CC3CC(CC(C3)C1)C2 (stereo unspecified), the Potency is reported as inconclusive [activator, single point].
For O=C1c2nc3cc(-c4ccco4)[nH]n3c(=O)c2CN1C1CCCCC1, the Potency was inconclusive [activator, partial curve].
In the case of O=C(c1cc2c(s1)CCCC2)N1CCN(Cc2ccc3c(c2)OCO3)CC1, the Potency is reported as inconclusive [inhibitor, full curve, poor fit].
For Cc1ccc(N=Nc2c(N)[nH]n3c(=O)cc(C)nc23)cc1, the “activity change, negative = inhibition” value was inactive: -30.1%.
For Cc1ccc(C(=O)NC(=S)Nc2ccccc2C)cc1, the Potency was inconclusive [activator, single point].
With CN(Cc1c(F)cccc1Cl)c1nnnn1-c1ccccc1 the “activity change, negative = inhibition” value was inactive: 4.1% [at 46.1 µM].
For Cc1ccc2nc3c(c(N)c2c1)CCN3c1ccccc1, the Potency was inconclusive [inhibitor, single point].
For Cc1ccccc1SCc1noc(C(=O)NC(C)C)c1C(=O)O, the “activity change, negative = inhibition” value was inactive: -0.12% [at 46.1 µM].
Cn1cccc1CC(=O)N/N=C/C=C/c1ccco1 was tested, and the “activity change, negative = inhibition” value was inactive: -6.92%.
In the case of O=C(Oc1cccc2c(OC(=O)N3CCOCC3)cccc12)N1CCOCC1, the “activity change, negative = inhibition” value is reported as inactive: -5.75% [at 46.1 µM].
In the case of Oc1ccc(Br)cc1-c1cc(-c2ccc(Cl)cc2)n[nH]1, the Potency is reported as inconclusive [inhibitor, partial curve, poor fit].
In the case of CCn1c(C)nc2cc(C(=O)N/N=C/c3cccc(OC)c3O)ccc21, the “activity change, negative = inhibition” value is reported as inactive: -4.83%.
For COc1ccc(C2c3[nH]c4ccccc4c3CCN2CCCn2cccn2)c(C)c1C (stereo unspecified), the Potency was inconclusive [activator, partial curve].
O=C(Nc1ccc(Oc2ccc(NC(=O)Nc3ccc([N+](=O)[O-])cc3)cc2)cc1)Nc1ccc([N+](=O)[O-])cc1 was tested, and the Potency was inconclusive [activator, partial curve].
For COc1cc(S(=O)(=O)N(Cc2ccc(C)cc2)C2CCCCC2)ccc1-n1cnnn1, the Potency was inconclusive [inhibitor, partial curve, poor fit].
